Converted amounts (≈) assume the structure as drawn.
Legend:
[1] = system: LG20; test: MBC on environmental MDR isolate; settings: Enterobacter
[2] = system: K. pneumoniae; test: Time-kill curve assay; format: cell-based, Klebsiella pneumonia
Procedure: (§1) A time–kill curve study was performed against bacterial strains (E. coli, E. faecalis, K. pneumonia and P. aeruginosa) to determine whether compound PS9 is bactericidal or bacteriostatic. MIC, 2MIC and 4MIC concentrations were employed for the time–kill assay as explained by Ali et al.. Untreated bacterial cells were used as a control. 100 µL aliquot was taken from each flask at regular intervals. An aliquot was further diluted in phosphate buffer saline solution and from each concentration 50 µL aliquot was inoculated on a nutrient agar plate and spread. Colonies were counted after the incubation of the plate at 37 °C. For each strain, the average (mean) colony count data (log10 CFU/mL) was plotted against time.

[3] = system: K. pneumoniae; test: Growth kinetics; format: cell-based, Klebsiella pneumonia
Procedure: Bacterial strains were tested as mentioned in Habib et al.. Briefly, ½ MIC, MIC and 2MIC values of PS9 were taken to assess the growth of bacterial strains whereas untreated cells and media were taken as positive and negative control, respectively.

[4] = system: HK43; test: MBC on environmental MDR isolate
[5] = molecular target: SpMetAP1a (Streptococcus pneumoniae, UniProt Q8DPV1); test: MetAP enzyme inhibition, Morrison Ki (Met-AMC fluorescence); format: biochemical; settings: Morrison Ki method
[6] = system: B. subtilis; test: Minimum bactericidal concentration; format: cell-based, Bacillus subtilis
[7] = system: E. faecalis; test: Growth inhibition screening (broth dilution); format: cell-based, Enterococcus faecalis
Procedure: (§2) In vitro screening of the compounds (PS1–14) was performed to assess the antibacterial activity against three Gram-positive (Staphylococcus aureus, Enterococcus faecalis and Bacillus subtilis,) and three Gram-negative (Pseudomonas aeruginosa, Klebsiella pneumonia and Escherichia coli) bacterial strains using the standard NCCLS broth dilution assay. The study’s standard drugs were ciprofloxacin (CIP) and ampicillin (AMP). Compounds were dissolved in a polar solvent (DMSO) and distributed into a 96-well plate in 200 µL of nutrient broth medium, with a final concentration of the compounds […] in each well. The bacterial cells (about 2.5 × 10^5 cells/mL) were inoculated into each well and incubated at 37 °C overnight. After incubation, the growth was measured by turbidity of the culture at 590 nm by spectrophotometer.

[8] = system: P. aeruginosa; test: Minimum inhibitory concentration (broth dilution); format: cell-based; settings: Pseudomonas aeruginosa, alone
[9] = system: human red blood cells (hRBCs); test: Hemolytic activity; format: cell-based; settings: up to 31.25 µg/mL; 37 °C, 2 h
Procedure: The compound PS9 was evaluated for hemolytic effect on human RBCs. In brief, RBCs suspension 10% (v/v) cleaned with 1 × PBS and resuspended again in 1 × PBS (pH 7.4). […] The samples were centrifuged and absorbance of the supernatant was taken at 415 nm to obtain the percentage of RBCs lysis. Triton X-100 with 1% (v/v) was used as a positive control. Percentage of RBCs lysis was calculated as:% RBCs lysis = (OD415nm sample − OD415nm PBS)/(OD415nm Triton X-100 1% − OD415nm PBS)(1)

[10] = system: E. coli; test: Combination study with AMP or CIP
[11] = system: HK41; test: MBC on environmental MDR isolate
[12] = system: K. pneumoniae; test: Minimum bactericidal concentration; format: cell-based, Klebsiella pneumonia; settings: Klebsiella pneumoniae
[13] = system: SD6; test: MIC on environmental MDR isolate (microdilution); settings: isolate SD6 E. coli
[14] = system: JST68; test: MIC on environmental MDR isolate (microdilution); settings: Escherichia coli
[15] = system: E. faecalis; test: Combination study with AMP or CIP
[16] = system: K. pneumoniae; test: Minimum inhibitory concentration (broth dilution); format: cell-based, Klebsiella pneumonia; settings: Klebsiella pneumoniae, alone
[17] = system: S. aureus; test: Growth inhibition screening (broth dilution); format: cell-based, Staphylococcus aureus
Procedure: as §2

[18] = system: JST71; test: MIC on environmental MDR isolate (microdilution); settings: isolate JST71 Enterobacter sp.
[19] = system: P. aeruginosa; test: Time-kill curve assay; format: cell-based, Pseudomonas aeruginosa
Procedure: as §1

[20] = system: P. aeruginosa; test: Combination study with AMP or CIP
[21] = system: SD5; test: MIC on environmental MDR isolate (microdilution); settings: isolate SD5 E. coli

O=C1Nc2ccc(F)cc2/C1=N\NC(=O)c1cc(-c2cccc(Br)c2)n[nH]1 [PS9, (E)-3-(3-Bromophenyl)-N′-(5-Fluoro-2-Oxoindolin-3-Ylidene)-1H-Pyrazole-5-Carbohydrazide]
MBC [1]: 16 µg/mL (≈ 37.4 µM)
killing (log10 CFU/mL with time) ([2]; 4MIC, after 16 h): significant eradication
killing (log10 CFU/mL with time) ([2]; MIC, till 16 h): no 100% eradication
growth ([3]; 2MIC): no growth was observed in both cultures at 2MIC concentration till 24 h
growth ([3]; MIC): no significant growth was found at MIC up to 10 h
MBC ([4]; Exiguobacterium mexicanum): 32 µg/mL (≈ 74.7 µM)
MBC and MIC ratio ([4]; isolate HK43): 2
Ki [5]: 370 ± 80 nM
MBC/MIC Ratio (R*) ([6]; B. subtilis): 4
MBC ([6]; Bacillus subtilis): 128 µg/mL (≈ 299 µM)
inhibition at 250 µg/mL ([7]; Enterococcus faecalis): ≥ 94%
% Growth Inhibition at 250 µg/mL ([7]; listed as C00009): 100%
MIC [8]: 8 µg/mL (≈ 18.7 µM)
lysis in RBCs [9]: no significant lysis
MIC in Combination ([10]; combination PS9 + AMP): 4 µg/mL
MIC in Combination ([10]; combination PS9 + CIP): 8 µg/mL
FICI ([10]; combination with AMP): 0.50
FICI ([10]; combination with CIP): 0.50
MBC ([11]; Enterobacter cloacae): 64 µg/mL (≈ 149 µM)
MBC and MIC ratio ([11]; isolate HK41): 2
MBC [12]: 8 µg/mL (≈ 18.7 µM)
MIC [13]: >1024 µg/mL
MIC [14]: 32 µg/mL (≈ 74.7 µM)
MIC in Combination ([15]; combination PS9 + AMP): 0.5 µg/mL
MIC in Combination ([15]; combination PS9 + CIP): 8 µg/mL
FICI ([15]; combination with AMP): 0.09
FICI ([15]; combination with CIP): 2.00
MIC [16]: 8 µg/mL (≈ 18.7 µM)
inhibition at 250 µg/mL ([17]; Staphylococcus aureus): ≥ 94%
% Growth Inhibition at 250 µg/mL ([17]; listed as C00009): 100%
MIC [18]: >1024 µg/mL
killing (log10 CFU/mL with time) ([19]; 4MIC, after 16 h): significant eradication
killing (log10 CFU/mL with time) ([19]; MIC, till 16 h): no 100% eradication
MIC in Combination ([20]; combination PS9 + AMP): 1 µg/mL
MIC in Combination ([20]; combination PS9 + CIP): 2 µg/mL
FICI ([20]; combination with AMP): 0.37
FICI ([20]; combination with CIP): 0.28
MIC [21]: >1024 µg/mL
